Drawing on PubChem BioAssay AID1745853 (National Center for Advancing Translational Sciences (NCATS), 2022), this text covers activity change, negative = inhibition for 29 molecules.

Common to all, as to experiment: Primary Screen for Target Class Profiling of Small Molecule Inhibitors of Methyltransferases
The target in experiment [1] is Glycine N-methyltransferase (Homo sapiens) (UniProt Q14749). Conditions: purified enzyme, MTase-Glo SAH luminescence; measured here: GNMT inhibition; at 40 µM; stronger effect = lower value. The method, boiled down:
(§1)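 Each enzyme was assayed with SAM and its substrate. SAH formation detected by MTase-Glo luminescence; single-point 40 uM screen[…].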

In experiment [2] the target is Guanidinoacetate N-methyltransferase (Homo sapiens) (UniProt Q14353). The following applies: purified enzyme, MTase-Glo SAH luminescence; measured here: GAMT inhibition; at 40 µM; stronger effect = lower value. The method, boiled down: as §1
The target of experiment [3] is Histamine N-methyltransferase (Homo sapiens) (UniProt P50135). Conditions: purified enzyme, MTase-Glo SAH luminescence; measured here: HNMT inhibition; at 40 µM; stronger effect = lower value. The method, boiled down:
as §1

The target of experiment [4] is Nicotinamide N-methyltransferase (Homo sapiens) (UniProt P40261). The following applies: purified enzyme, MTase-Glo SAH luminescence; measured here: NNMT inhibition; at 40 µM; stronger effect = lower value. The method, boiled down:
as §1

Experiment [5] concerns the target Phenylethanolamine N-methyltransferase (Homo sapiens) (UniProt P11086). The following applies: purified enzyme, MTase-Glo SAH luminescence; measured here: PNMT inhibition; at 40 µM; stronger effect = lower value. The method, boiled down:
as §1

Molecules are shown by their SMILES. The list shows a part of the results. Shown are side measurements of this screen, not its main read-out; they come without a call.
On the % scale 0 is the no-effect control and ±100 the full control effect.

With `CCN(CC)C(=S)SSC(=S)N(CC)CC`, the activity change, negative = inhibition in experiment [1] was -52.2%; in experiment [2], 7.24%; in experiment [3], 2.75%; in experiment [4], -5.37%; in experiment [5], 4.27%.

`COc1ccccc1CN1C(=O)c2ccccc2CC1(C)C(=O)NC1CCCCC1` (centres undefined): the activity change, negative = inhibition in experiment [1] is -3.69%; in experiment [2], 6.78%; in experiment [3] it was 1.58%; in experiment [4], -2.53%; in experiment [5] it was -3.43%.

On to `O=S(=O)(NCc1cccnc1Oc1ccc(F)cc1F)c1cccnc1`, for which the activity change, negative = inhibition in experiment [1] is -1.71%; in experiment [2], -0.111%; in experiment [3] it was 0.303%; in experiment [4] it was 0.643%; in experiment [5], 0.495%.

`C=C[C@@]1(C)CC(=O)[C@]2(O)[C@@]3(C)[C@@H](O)CCC(C)(C)[C@@H]3[C@H](O)[C@H](OC(C)=O)[C@@]2(C)O1`: the activity change, negative = inhibition is 7.65% in experiment [2], -2.48% in experiment [4] and 7.16% in experiment [5].

Take `Cc1ccc(NC(=O)N2CCn3cccc3C2C)cc1C` (centres undefined): the activity change, negative = inhibition in experiment [1] was -6.08%; in experiment [2], 0%; in experiment [3], -3.05%; in experiment [4], -8.79%; in experiment [5], -3.44%.

For the molecule `Cc1cccc(C(=O)N2CC(Oc3ccc(-c4noc(C5CCOCC5)n4)cc3)C2)c1`, the activity change, negative = inhibition in experiment [1] is -9.3%; in experiment [2], -2.95%; in experiment [3] it was -2.13%; in experiment [4], -12.4%; in experiment [5], -1.09%.

For `CN1C(=O)c2cc3ccccc3n2CC1(C)C(=O)NCC(=O)NCc1cccs1` (centres undefined), the activity change, negative = inhibition in experiment [1] was 5.08%; in experiment [2], -2.34%; in experiment [3] it was 7.93%; in experiment [4], 11.8%; in experiment [5] it was 0.899%.

For `CCOc1ccc(C(=O)Cn2nc3n(CC(C)C)c(=O)c4ccc(C(=O)NCC(C)C)cc4n3c2=O)cc1`, the activity change, negative = inhibition is 4.26% in experiment [1]; 2.22% in experiment [2]; 4.64% in experiment [3]; 1.81% in experiment [4]; -1.27% in experiment [5].

In the case of `NCCc1noc(-c2ccccc2)n1`, the activity change, negative = inhibition in experiment [1] is 0.501%; in experiment [2], 0.583%; in experiment [3] it was 3.4%; in experiment [4], -3.36%; in experiment [5], 0.551%.

Consider `CCOC(=O)c1cc2n(n1)CC(C)(C(=O)NC1CCCCCC1)N(Cc1ccc(OC)cc1)C2=O` (centres undefined), for which the activity change, negative = inhibition turned out to be 0.564% in experiment [1]; 1.51% in experiment [2]; 8.28% in experiment [3]; 10.1% in experiment [4]; 0.019% in experiment [5].

As to `COCCN1CC(C(=O)N2CCN(c3ncccc3C#N)CC2)CCC1=O` (centres undefined), the activity change, negative = inhibition in experiment [1] was -0.6%; in experiment [2], -1.19%; in experiment [3], 0.523%; in experiment [4] it was -1.32%; in experiment [5], 1.83%.

For `COc1ccc(-c2nc(Cn3c(-c4ccc(Cl)cc4)nc(C)c(CCO)c3=O)c(C)o2)cc1`, the activity change, negative = inhibition is -5.72% in experiment [1]; -5.45% in experiment [2]; -3.54% in experiment [3]; -10.8% in experiment [4]; 0.327% in experiment [5].

In the case of `COc1ccc2c(c1O)OC(C)(C)c1c-2ccc2c1C(=O)N(c1ccc(C(=O)c3ccccc3)cc1)C2=O`, the activity change, negative = inhibition was -18% in experiment [2], -34.8% in experiment [4] and -11.6% in experiment [5].

For the molecule `CC(C)NC(=O)c1ccc2c(=O)n(C(C)C)c3nn(Cc4cccc(F)c4)c(=O)n3c2c1`, the activity change, negative = inhibition was -4.14% in experiment [1]; 5.97% in experiment [2]; 3.63% in experiment [3]; -7.69% in experiment [4]; 3.87% in experiment [5].

Consider `CCOc1ccc(C2c3cccn3-c3sc4c(c3CN2C(=O)Nc2ccccc2F)CCCC4)cc1` (centres undefined), for which the activity change, negative = inhibition in experiment [1] was -2.21%; in experiment [2] it was 0.555%; in experiment [3], -1.36%; in experiment [4], -2.3%; in experiment [5] it was 3.28%.

`CCCN1C(=O)c2c(C(=O)NCc3ccc(OC(C)C)cc3)ncn2CC1(C)C(=O)NCc1ccc(C)cc1` (centres undefined): the activity change, negative = inhibition was found to be 4.19% in experiment [1]; 0% in experiment [2]; 10.6% in experiment [3]; 1.68% in experiment [4]; 11.2% in experiment [5].

For the molecule `CC1(C(=O)NC2CCCCCCC2)Cn2c(cc3sccc32)C(=O)N1Cc1ccccc1F` (centres undefined), the activity change, negative = inhibition in experiment [1] is 1.61%; in experiment [2], 1%; in experiment [3], 4.49%; in experiment [4], 2.4%; in experiment [5], -0.115%.

Take `CC1CC(C)CN(CCCN2C(=O)c3ccc(-c4ccco4)n3CC2(C)C(=O)NC2CCCC2)C1` (centres undefined): the activity change, negative = inhibition in experiment [1] was determined as 4.19%; in experiment [2], 4.93%; in experiment [3], 0.849%; in experiment [4], 9.2%; in experiment [5], 1.49%.

For the molecule `CCOC(=O)c1cc2n(n1)CC(C)(C(=O)NCCC(C)C)N(Cc1ccc(C)cc1)C2=O` (centres undefined), the activity change, negative = inhibition in experiment [1] was -2.1%; in experiment [2], 4.96%; in experiment [3], 0.375%; in experiment [4] it was 4.88%; in experiment [5] it was -3.07%.

Turning to `O=C(NCc1nc(-c2ncccn2)no1)C1CC2(CCNCC2)CN1` (centres undefined), the activity change, negative = inhibition in experiment [1] is 1.25%; in experiment [2], -2.09%; in experiment [3], -0.133%; in experiment [4] it was -0.838%; in experiment [5], 1.34%.

For `Cc1ccc(CN2C(=O)NC3(CCN(C(=O)Cc4cccc(F)c4)CC3)C2=O)cc1`, the activity change, negative = inhibition in experiment [1] is -2.42%; in experiment [2] it was 3.92%; in experiment [3], 2.31%; in experiment [4], -4.8%; in experiment [5], -0.955%.

As for `c1csc(CNc2ncnc3ccc(-c4ccc5c(c4)OCO5)cc23)c1`, the activity change, negative = inhibition is -7.4% in experiment [2], -21.1% in experiment [4] and -7.92% in experiment [5].

As for `Cn1ccnc1CN1C(=O)CO[C@H]2CN(C(=O)c3cnccn3)C[C@H]21`, the activity change, negative = inhibition in experiment [1] was -2.61%; in experiment [2] it was -3.7%; in experiment [3], -1.22%; in experiment [4], -5.66%; in experiment [5], -1.17%.

As for `COc1ccc(CNC(=O)c2cc3n(n2)CC(C)(C(=O)NC2CCCCC2)N(C)C3=O)c(OC)c1` (centres undefined), the activity change, negative = inhibition is 0.995% in experiment [1]; 2.29% in experiment [2]; -7.22% in experiment [3]; 2.05% in experiment [4]; -1.2% in experiment [5].

Turning to `CC(C)c1cc2n(n1)CC(C)(C(=O)NC1CCCCC1)N(Cc1ccccc1Cl)C2=O` (centres undefined), the activity change, negative = inhibition in experiment [1] was -1.4%; in experiment [2], 3.58%; in experiment [3] it was 1.98%; in experiment [4] it was 2.2%; in experiment [5] it was -1.57%.

On to `CCOc1ccccc1NC(=O)CN1C(=O)C(c2ccccc2)=NC12CCCCCC2`, for which the activity change, negative = inhibition in experiment [1] was -0.949%; in experiment [2], -2.69%; in experiment [3], -0.04%; in experiment [4], -5.07%; in experiment [5], 1.63%.

On to `O=C(NCc1ccc(N2CCOCC2)cc1)c1cc[nH]c1C1CCCNC1` (centres undefined), for which the activity change, negative = inhibition in experiment [1] is -6.45%; in experiment [2] it was -8.54%; in experiment [3], -43.4%; in experiment [4] it was -10.2%; in experiment [5], -11.2%.

As for `Nc1c2c(nc3ccccc13)CCCC2`, the activity change, negative = inhibition in experiment [1] was 4.71%; in experiment [2] it was 12.1%; in experiment [3], -85.5%; in experiment [4], -10.3%; in experiment [5], 5.06%.

`COc1c(F)cccc1C(=O)N1CCc2onc(-c3ccccc3F)c2C1`: the activity change, negative = inhibition in experiment [1] was -5.68%; in experiment [2], -0.234%; in experiment [3], -2.46%; in experiment [4], -18.9%; in experiment [5] it was -3.6%.
